Assay results reported in the supplement of paper PMC4967469.

Assays:
Assay in all cases: Viability of human cancer cell lines after 72 h of drug (GDSC screen)
CAY10603 = compound: CC(C)(C)OC(=O)Nc1ccc(-c2cc(C(=O)NCCCCCCC(=O)NO)no2)cc1 [CAY10603]; details: top dose 20 µM; top dose inferred
Method: (§1)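 Human cancer cell lines in 384-well plates, medium with 10% serum, drug for 72 h over a 256-fold dose range (nine 2-fold or five 4-fold steps up to the top dose). Adherent lines were fixed and stained with the nucleic acid dye Syto60, suspension lines read with resazurin; signal relative to control wells, capped at 0 and 100%. One two-parameter sigmoid per drug and line, fitted in a mixed model over all curves with the slope shared within a line.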

XMD8-92 = compound: CCOc1cc(N2CCC(O)CC2)ccc1Nc1ncc2c(n1)N(C)c1ccccc1C(=O)N2C [XMD8-92]; details: top dose 10 µM; top dose inferred
Method: as §1

ACHP (KIN001-260) = compound: N#Cc1c(C2CCNCC2)cc(-c2c(O)cccc2OCC2CC2)nc1N [ACHP (KIN001-260)]; details: top dose 20 µM; top dose inferred
Method: as §1

CH5424802 = compound: CCc1cc2c(cc1N1CCC(N3CCOCC3)CC1)C(C)(C)c1[nH]c3cc(C#N)ccc3c1C2=O [CH5424802]; details: top dose 5.12 µM; top dose inferred
Method: as §1

Cell Line | AUC (CAY10603) | pIC50 (CAY10603) | AUC (XMD8-92) | pIC50 (XMD8-92) | AUC (ACHP (KIN001-260)) | pIC50 (ACHP (KIN001-260)) | AUC (CH5424802) | pIC50 (CH5424802)
ONS-76 (medulloblastoma, adherent) | 0.501 | 5.90 | 0.935 | < 5.00 | 0.964 | < 4.70 | 0.979 | < 5.29
OS-RC-2 (kidney, adherent) | 0.621 | 5.51 | 0.975 | < 5.00 | 0.968 | < 4.70 | 0.956 | < 5.29
OV-7 (ovary, adherent) | 0.571 | 5.67 | 0.958 | < 5.00 | 0.905 | < 4.70 | 0.855 | < 5.29
OV-17R (ovary, adherent) | 0.436 | 6.11 | 0.802 | 5.13 | 0.963 | < 4.70 | 0.946 | < 5.29
OV-56 (ovary, adherent) | 0.618 | 5.59 | 0.956 | < 5.00 | 0.926 | < 4.70 | 0.892 | < 5.29
OV-90 (ovary, adherent) | 0.702 | 5.26 | 0.88 | < 5.00 | 0.962 | < 4.70 | 0.978 | < 5.29
OVCA420 (ovary, adherent) | 0.621 | 5.52 | 0.876 | < 5.00 | 0.948 | < 4.70 | 0.98 | < 5.29
OVCA433 (ovary, adherent) | 0.649 | 5.47 | 0.824 | 5.16 | 0.983 | < 4.70 | 0.975 | < 5.29
OVCAR-3 (ovary, adherent) | 0.987 | < 4.70 | 0.918 | < 5.00 | 0.986 | < 4.70 | 0.987 | < 5.29
OVCAR-4 (ovary, adherent) | 0.829 | < 4.70 | 0.917 | < 5.00 | 0.959 | < 4.70 | 0.965 | < 5.29
OVCAR-8 (ovary, adherent) | 0.304 | 6.42 | 0.886 | 5.04 | 0.873 | 4.80 | 0.989 | < 5.29
OVISE (ovary, adherent) | 0.615 | 5.54 | 0.952 | < 5.00 | 0.952 | < 4.70 | 0.958 | < 5.29
OVK-18 (ovary, adherent) | 0.973 | < 4.70 | 0.92 | < 5.00 | 0.979 | < 4.70 | 0.985 | < 5.29
OVKATE (ovary, adherent) | 0.604 | 5.53 | 0.85 | < 5.00 | 0.82 | < 4.70 | 0.967 | < 5.29
OVTOKO (ovary, adherent) | 0.65 | 5.44 | 0.855 | < 5.00 | 0.957 | < 4.70 | 0.967 | < 5.29
PANC-02-03 (pancreas, adherent) | 0.48 | 5.96 | 0.883 | < 5.00 | 0.938 | < 4.70 | 0.975 | < 5.29
PC-14 (lung adenocarcinoma, adherent) | 0.543 | 5.79 | 0.946 | < 5.00 | 0.931 | < 4.70 | 0.85 | 5.49
PCI-4B (head and neck, adherent) | 0.434 | 6.08 | 0.809 | 5.31 | 0.987 | < 4.70 | 0.979 | < 5.29
PCI-6A (head and neck, adherent) | 0.307 | 6.44 | 0.952 | < 5.00 | 0.977 | < 4.70 | 0.983 | < 5.29
PCI-30 (head and neck, adherent) | 0.984 | < 4.70 | 0.904 | < 5.00 | 0.984 | < 4.70 | 0.975 | < 5.29
PEO1 (ovary, adherent) | 0.512 | 5.87 | 0.889 | < 5.00 | 0.928 | < 4.70 | 0.979 | < 5.29
PFSK-1 (medulloblastoma, adherent) | 0.656 | 5.46 | 0.799 | 5.29 | 0.967 | < 4.70 | 0.985 | < 5.29
PL4 (pancreas, adherent) | 0.712 | 5.29 | 0.933 | < 5.00 | 0.974 | < 4.70 | 0.987 | < 5.29
PL-21 (acute myeloid leukaemia, suspension) | 0.586 | 5.65 | 0.844 | 5.05 | 0.859 | < 4.70 | 0.96 | < 5.29
QGP-1 (pancreas, adherent) | 0.646 | 5.39 | 0.951 | < 5.00 | 0.939 | < 4.70 | 0.959 | < 5.29
RC-K8 (B-cell lymphoma, suspension) | 0.679 | 5.44 | 0.993 | < 5.00 | 0.985 | < 4.70 | 0.993 | < 5.29
RCC-AB (kidney, adherent) | 0.352 | 6.37 | 0.908 | < 5.00 | 0.938 | < 4.70 | 0.937 | < 5.29
RCC-ER (kidney, adherent) | 0.735 | 5.19 | 0.919 | < 5.00 | 0.986 | < 4.70 | 0.983 | < 5.29

pIC50: −log10 of the molar value. By IC50 is meant the dose at which the fit gives 50% viability; a fit beyond the top or the lowest dose is shown as a bound at that dose. AUC sums up the same curve from the lowest dose to the 256-fold higher top dose; it is 1 without any effect and falls as sensitivity rises. The top dose, if marked as inferred, is not printed in the source and was worked back from the curve model.
